Laboratory results published in US5084142A, “Separation of tertiary butyl alcohol from water by azeotropic or extractive distillation” (priority 1991, dated 1992).

Columns and labels:
[1] = Extractive agents evaluated in vapor-liquid equilibrium still (separating water from t-butanol); assay type: physicochemical; settings: for Relative Volatility: extractive agent, vapor-liquid equilibrium still; for liquid composition, t-butyl alcohol / liquid composition, water / vapor composition, t-butyl alcohol / vapor composition, water: 80 g azeotrope, 30 g agent, fourteen hours (ethylene glycol phenyl ether) or one hour (dimethyl phthalate)
Source text: (§1) The data listed in Tables 2 and 3 was obtained in a vapor-liquidequilibrium still. In every case, the starting material was the t-butyl alcohol-water azeorrope. The relative volatilities are listed for each of the agents.

[2] = Extractive distillation in 7.3 theoretical plate rectification column; settings: for Relative Volatility (average for each theoretical plate): 7.3 theoretical plate column, extractive mode; for Relative Volatility (average for each theoretical plate) / Weight % Water, Bottoms / Weight % Water, Overhead / Weight % t-Butanol, Bottoms / Weight % t-Butanol, Overhead: 1,3-butanediol 2 hrs., triethylene glycol 1 hr.; for Weight % Water, Bottoms / Weight % Water, Overhead / Weight % t-Butanol, Bottoms / Weight % t-Butanol, Overhead: extractive
[3] = Azeotropic agents evaluated in vapor-liquid equilibrium still (separating water from t-butanol); assay type: physicochemical; settings: for Relative Volatility: azeotropic agent, vapor-liquid equilibrium still, water as overhead
Source text: as §1

[4] = Azeotropic distillation in 7.3 theoretical plate rectification column
[5] = brings t-butanol out as overhead (*)
[6] = one hour, agent 15 ml/min, 85° C., reflux rate 40 ml/min (Example 6)
[7] = 30 grams agent, refluxed ten hours
[8] = total reflux four hours (Example 5)

## CC(O)CCO (stereo not shown) [1,3-Butanediol]
[1]; [5]
  Relative Volatility: 1.20
[2]
  Relative Volatility (average for each theoretical plate): 1.178
  Weight % Water, Bottoms: 15.6 Weight %
  Weight % Water, Overhead: 5.3 Weight %
  Weight % t-Butanol, Bottoms: 84.4 Weight %
  Weight % t-Butanol, Overhead: 94.7 Weight %

## OCCCCO [1,4-Butanediol]
[1]; [5]
  Relative Volatility: 1.38

## CCCCCC(C)=O [2-Heptanone]
[3]
  Relative Volatility: 1.42

## CC(CO)CO [2-Methyl-1,3-propanediol]
[1]; [5]
  Relative Volatility: 1.32

## CCCCCCC(C)O (stereo not shown) [2-Octanol]
[1]; water as overhead
  Relative Volatility: 1.47

## CCCCC(=O)CC [3-Heptanone]
[1]; water as overhead
  Relative Volatility: 1.70

## CCCC(=O)CC [3-Hexanone]
[1]; water as overhead
  Relative Volatility: 1.97

## CCCCCC(=O)CC [3-Octanone]
[1]; water as overhead
  Relative Volatility: 2.0

## COc1ccccc1 [Anisole]
[1]; water as overhead
  Relative Volatility: 1.31

## OC1CCCCCCCCCCC1 [Cyclododecanol]
[1]; water as overhead
  Relative Volatility: 1.47

## CCOCCOCCOCC [Diethylene glycol diethyl ether]
[1]; water as overhead
  Relative Volatility: 1.44

## OCCOCCO [Diethylene glycol]
[1]; [5]
  Relative Volatility: 1.26

## CC(C)CC(O)CC(C)C [Diisobutyl carbinol]
[1]; water as overhead
  Relative Volatility: 1.94

## CC(C)CC(=O)CC(C)C [Diisobutyl ketone]
[1]; water as overhead
  Relative Volatility: 1.42

## COC(=O)CCCCC(=O)OC [Dimethyl adipate]
[1]; [5]
  Relative Volatility: 1.21

## CN(C)C=O [Dimethyl formamide]
[1]; [5]
  Relative Volatility: 1.35

## COC(=O)c1ccccc1C(=O)OC [Dimethyl phthalate]
[1]
  liquid composition, t-butyl alcohol: 80.3%
  liquid composition, water: 19.7%
  vapor composition, t-butyl alcohol: 85.2%
  vapor composition, water: 14.8%
[1]; [5]
  Relative Volatility: 1.41

## C[S+](C)[O-] [Dimethyl sulfoxide]
[1]; [5]
  Relative Volatility: 1.51

## CCCC(=O)OCC [Ethyl butyrate]
[1]; water as overhead
  Relative Volatility: 1.62

## CCCCC(=O)OCC [Ethyl n-valerate]
[1]; water as overhead
  Relative Volatility: 1.38

## CC(=O)OCCOC(C)=O [Ethylene glycol diacetate]
[1]; water as overhead
  Relative Volatility: 1.23

## OCCOc1ccccc1 [Ethylene glycol phenyl ether]
[1]
  liquid composition, t-butyl alcohol: 89.2%
  liquid composition, water: 10.8%
  vapor composition, t-butyl alcohol: 76.8%
  vapor composition, water: 23.3%
[1]; water as overhead
  Relative Volatility: 2.49

## CCCCCCOC(C)=O [Hexyl acetate]
[3]
  Relative Volatility: 2.0

## CCCCCCO [Hexyl alcohol]
[1]; water as overhead
  Relative Volatility: 1.70

## CCCC(=O)OCC(C)C [Isobutyl butyrate]
[1]; water as overhead
  Relative Volatility: 1.22

## CC(C)CCCCCCCO [Isodecanol]
[1]; water as overhead
  Relative Volatility: 1.63

## CC1=CC(=O)CC(C)(C)C1 [Isophorone]
[1]; water as overhead
  Relative Volatility: 1.54

## CCCCCC(=O)OC [Methyl caproate]
[1]; water as overhead
  Relative Volatility: 2.07

## CC(=O)CCC(C)C [Methyl isoamyl ketone]
[1]; water as overhead
  Relative Volatility: 1.61

## OCCOCCOCCO [Triethylene glycol]
[1]; [5]
  Relative Volatility: 2.33
[2]
  Relative Volatility (average for each theoretical plate): 1.235
  Weight % Water, Bottoms: 19.8 Weight %
  Weight % Water, Overhead: 5 Weight %
  Weight % t-Butanol, Bottoms: 80.2 Weight %
  Weight % t-Butanol, Overhead: 95 Weight %
[2]; [6]
  bottoms analysis, t-butyl alcohol: 80.22%
  bottoms analysis, water: 19.8%
  overhead analysis, t-butyl alcohol: 95%
  overhead analysis, water: 5%

## C=COCC(C)C [Vinyl isobutyl ether]
[3]; [7]
  liquid composition, t-butyl alcohol: 94.1%
  liquid composition, water: 5.1%
  vapor composition, t-butyl alcohol: 84.1%
  vapor composition, water: 15.9%
[3]
  Relative Volatility: 3.5

## C=COCCCC [Vinyl n-butyl ether]
[4]; 7.3 theoretical plate column, azeotropic mode, 9 hrs.
  Relative Volatility: 1.50
[4]; azeotropic, 9 hrs.
  Weight % Agent, Bottoms: 29.1 Weight %
  Weight % Agent, Overhead: 58.2 Weight %
  Weight % Water, Bottoms: 1.0 Weight %
  Weight % Water, Overhead: 9.1 Weight %
  Weight % t-Butanol, Bottoms: 69.9 Weight %
  Weight % t-Butanol, Overhead: 32.7 Weight %
[4]; [8]
  average relative volatility for each theoretical plate: 1.24
  liquid composition, t-butyl alcohol: 68.4%
  liquid composition, vinyl n-butyl ether: 29.5%
  liquid composition, water: 2.1%
  vapor composition, t-butyl alcohol: 31.0%
  vapor composition, vinyl n-butyl ether: 64.4%
  vapor composition, water: 4.6%

## CC(O)c1ccccc1 (stereo not drawn) [alpha-Methyl benzyl alcohol]
[1]; water as overhead
  Relative Volatility: 1.36

## CCCCOC(C)=O [n-Butyl acetate]
[1]; water as overhead
  Relative Volatility: 1.47
